# PMC4336329 (PLoS ONE, 2015)
# The whole screen tested about 310,000 compounds, of which about 2,200 (0.71%) showed an effect of 50% or more. Effects have a minus sign here. The list shows a part of the results.
# Biological target: human ether-à-go-go-related gene (hERG) potassium channel (human, UniProt Q12809)
# Assay: primary screen, population patch clamp on CHO cells stably expressing hERG
# human ether-à-go-go-related gene (hERG) potassium channel, sequence (Q12809 whole entry, looked up): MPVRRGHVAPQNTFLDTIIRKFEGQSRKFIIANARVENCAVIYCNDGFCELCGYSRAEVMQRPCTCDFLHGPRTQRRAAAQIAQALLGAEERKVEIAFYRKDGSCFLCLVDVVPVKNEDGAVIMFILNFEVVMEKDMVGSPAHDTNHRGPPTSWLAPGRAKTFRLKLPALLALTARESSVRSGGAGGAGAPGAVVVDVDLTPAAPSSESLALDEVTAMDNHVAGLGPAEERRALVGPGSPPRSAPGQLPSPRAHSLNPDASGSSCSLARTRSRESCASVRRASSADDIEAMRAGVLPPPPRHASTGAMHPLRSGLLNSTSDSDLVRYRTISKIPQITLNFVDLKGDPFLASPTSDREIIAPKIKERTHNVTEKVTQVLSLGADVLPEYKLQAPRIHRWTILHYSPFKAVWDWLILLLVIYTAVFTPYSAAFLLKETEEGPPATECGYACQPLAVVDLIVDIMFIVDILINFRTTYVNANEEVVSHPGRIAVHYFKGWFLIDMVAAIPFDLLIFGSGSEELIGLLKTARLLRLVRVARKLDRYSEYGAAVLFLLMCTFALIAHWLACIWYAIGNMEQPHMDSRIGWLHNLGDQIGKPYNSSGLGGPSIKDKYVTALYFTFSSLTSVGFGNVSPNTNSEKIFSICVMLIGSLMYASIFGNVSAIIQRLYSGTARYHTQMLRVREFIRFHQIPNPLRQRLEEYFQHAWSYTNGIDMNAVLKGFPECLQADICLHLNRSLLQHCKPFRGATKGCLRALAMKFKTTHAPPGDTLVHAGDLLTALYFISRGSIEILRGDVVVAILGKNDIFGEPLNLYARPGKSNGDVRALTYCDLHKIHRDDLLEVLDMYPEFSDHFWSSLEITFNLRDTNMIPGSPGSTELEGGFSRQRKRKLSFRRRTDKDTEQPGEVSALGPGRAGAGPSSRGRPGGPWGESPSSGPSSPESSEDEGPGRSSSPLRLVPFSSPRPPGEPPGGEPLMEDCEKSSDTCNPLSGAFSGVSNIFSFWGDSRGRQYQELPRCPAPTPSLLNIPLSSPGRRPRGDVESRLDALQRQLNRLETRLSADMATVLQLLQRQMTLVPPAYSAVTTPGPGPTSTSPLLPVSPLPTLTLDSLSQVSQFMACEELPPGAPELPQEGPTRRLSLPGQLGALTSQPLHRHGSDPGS
row,Structure (SMILES),"hERG current change (%, negative = inhibition) at 1uM [%]"
1,COC(=O)c1sc(SC)c(S(=O)(=O)C(C)C)c1N/N=C(\C#N)C(=O)c1ccccc1,-0.337
2,CCOc1ccc(C(=O)NCc2ccco2)cc1Cl,9.69
3,COc1ccc(C(=O)NCCCCCCNC(=O)c2ccc(OC)cc2)cc1,9.15
4,Cc1ccc(-c2nn3c(C)nnc3c3ccccc23)cc1S(=O)(=O)NCCO,11.9
5,O=Cc1ccc(-c2nc3ccccc3s2)o1,4.72
6,CCS(=O)(=O)c1nc(S(=O)(=O)c2ccc(Cl)cc2)c(N2CCN(C)CC2)s1,13
7,CCC(=O)Nc1cc2c3c(c1)CCN3C(=O)CC2,-13.9
8,CCOc1ncccc1C(=O)Nc1ccc(S(=O)(=O)Nc2nc(C)cc(C)n2)cc1,5.53
9,CCN1CCCC1CN(Cc1cc2cc(C)cc(C)c2[nH]c1=O)C(=O)Nc1ccccc1OC (centres unmarked),-7.22
10,O=C(NCCc1ccc(Cl)cc1)c1ccc2c(c1)OCCO2,20.2
11,COc1ccc(OC(C)C(=O)Nc2ccc(F)cc2F)cc1 (centres unmarked),8.43
12,COc1ccc(NC(=S)NC(=O)c2csnn2)cc1,-0.997
13,O/N=C/c1ccc2ccccc2n1,17.2
14,CC1(C)Cc2c(cnn2-c2cccc(F)c2)C(NC(=O)Cn2cccn2)C1 (centres unmarked),1.4
15,CCOC(=O)CSC1=NC(=O)/C(=C/c2ccc(Br)cc2)S1,9.71
16,C/C(=N\O)C1CCCCC1,10.4
17,O=C(CCN1C(=O)CSC1=O)Nc1ccccc1,16.3
18,Cc1oc(C(=O)O)cc1COc1ccc2c3c(c(=O)oc2c1)CCC3,13.3
19,CCn1cc(C(=O)NCCCN2CCC(C)CC2)c2cc(OC)c(OC)cc2c1=O,5.24
20,Cc1cc(O)c(C2(C(F)(F)F)NCCNC2=O)cc1C (centres unmarked),14.6
21,CCOc1ccc2oc(C(=O)OCC(=O)N3C(C)CCCC3C)c(C)c2c1 (centres unmarked),2.29
22,CCN(CC)S(=O)(=O)c1ccc(S(=O)(=O)Nc2c(C)nn(C)c2C)cc1,12.6

row,Structure (SMILES),"hERG current change (%, negative = inhibition) at 1uM [%]"
1,CCN(CC(=O)Nc1ccc(OC)cc1)C(=O)Cc1ccc(OC)c(S(=O)(=O)N2CCOCC2)c1,8.35
2,CCOC(=O)CSc1nnc(CNC(=O)c2ccc(OC)cc2)n1Cc1ccccc1,8.85
3,CCOC(=O)C(C)(C)N(Cc1ccc(C)cc1)S(=O)(=O)c1ccc(Cl)c([N+](=O)[O-])c1,10
4,CCOC(=O)C1(Cc2ccc(Cl)cc2)CCN(C(=O)CCc2cnccn2)CC1,-5.67
5,COc1ccccc1C1CCN(c2ccc(CO)cc2[N+](=O)[O-])CC1,8.83
6,COC(=O)CN1C(=O)[C@H]2[C@@H](c3ccc(C)o3)N3C(=O)CN(CC4CC4)C(=O)[C@@]3(C)[C@H]2C1=O,9.36
7,CC(=O)c1sc(C(C)(C)C)cc1NC(=O)/C=C/C(=O)O,14.3
8,CCCCc1nccn1CCn1ccnc1CCCC.Cl,9.1
9,CC(=O)N1CCc2cc(S(=O)(=O)CCC(=O)N3CCN(c4ccccn4)CC3)ccc21,5.53
10,CCOc1ccccc1N(CC(=O)Nc1cc(OC)ccc1OC)S(C)(=O)=O,-0.805
11,COCCNC(=O)c1cc(-c2ccc3c(c2)OCO3)on1,12.6
12,CCN1CCN(c2nc(Nc3cc(OC)ccc3OC)nc(Nc3cc(OC)ccc3OC)n2)CC1,11.5
13,CC(=O)NC(Cc1cnc[nH]1)C(=O)O (centres unmarked),10.5
14,O=C(O)CC1Oc2ccc(Cl)cc2NC1=O (centres unmarked),11.4
15,CC(=O)c1ccc(N2CCN(C(=O)Nc3ccc(C)cc3)CC2)cc1,8.58
16,O=C1c2ccccc2C(=O)N1CC1c2ccccc2CCN1S(=O)(=O)c1ccccc1 (centres unmarked),7.85
17,COc1cccc(C(=O)C2CN(C)CC2c2ccc(Cl)cc2)c1 (centres unmarked),-3.95
18,CCCc1nc2c(C)ccc(C)c2c(N)c1CC,-17.4
19,CCOC(=O)C1(C)NC(c2ccc(N(C)C)cc2)C2C(=O)N(c3ccc(OC)cc3)C(=O)C21 (centres unmarked),11.4
20,CC(C)N(Cc1nc(-c2ccccc2)no1)C(=O)CN(C)S(=O)(=O)c1ccc(Br)cc1,12
21,O=C(Nc1ccccc1)c1ccc(Br)c(S(=O)(=O)Nc2cccnc2)c1,13.6
22,CC(C)c1nnc(NC(=O)CCC(=O)N2CCN(Cc3ccccc3)CC2)s1,11.9

row,Structure (SMILES),"hERG current change (%, negative = inhibition) at 1uM [%]"
1,CNC(=O)CSc1nnc(-c2ccncc2)n1Cc1ccccc1,17.9
2,CCOC(=O)c1c(C)n(-c2ccc(C)cc2)c2c(C(C(C)=O)C(=O)O)c(Br)c(O)c(O)c12 (centres unmarked),0.244
3,COc1ccc2sc(-c3ccccc3OC)c(-c3ccc(OC)c(F)c3)c2c1,10.6
4,CCC(=O)CCC(=O)c1ccc2ccccc2c1,9.34
5,CC(C)(C)OC(=O)[C@H](Cc1ccccc1)NC(=O)c1nc[nH]c1C(=O)NC1CC[NH2+]CC1.[Cl-],11.9
6,CCC(C(=O)NCCc1ccc(OC)c(OC)c1)n1nc(C)n2c(cc3occc32)c1=O (centres unmarked),8.96
7,Cc1ccc2nc(NC(=O)c3cccs3)sc2c1,7.6
8,COC(=O)N/N=C\c1ccccc1OC/C=C/c1ccccc1,9.39
9,CSc1c(CC(=O)Nc2ccccc2Cl)n(Cc2ccccc2)c2ccccc12,8.62
10,CCN(CC)CCN(C(=O)C1=COCCO1)c1nc2ccc(C)cc2s1.Cl,-34
11,CCC1CCCCN1CCCNC(=O)C(C)n1nc(C)c2sc3ccccc3c2c1=O (centres unmarked),-3.95
12,O=C(Nc1ccc2c(c1)CCC2)c1ccc(Br)s1,27.1
13,O=C(/C=C/c1ccccc1)Nc1ccc(CN2CCOCC2)cc1,-25.4
14,O=C1COc2ccc(C(=O)NCc3ccco3)cc2N1,10.1
15,Cc1c(C(=O)N2CC3(CC(c4cccc(NC(=O)CC(c5ccccc5)c5ccccc5)c4)=NO3)C[C@@H]2C(N)=O)cc([N+](=O)[O-])cc1[N+](=O)[O-] (some centres unmarked),16.5
16,O=C(O)c1ccc(S(=O)(=O)NC2CCCCC2)cc1,29.9
17,COC(=O)CSc1nnc([C@H](Cc2ccccc2)NC(=O)OC(C)(C)C)o1,8.59
18,Cc1cc(Cl)ccc1OCC(=O)OCC(=O)N(CC(C)C)c1c(N)n(Cc2ccccc2)c(=O)[nH]c1=O,21.6
19,COc1cc(/C=C2/SC(=O)N(Cc3ccccc3)C2=O)ccc1OCc1ccncc1,14.1
20,CCn1c(/C=C/c2cc[n+](C)cc2)nc2ccccc21.[I-],6.03
21,Cc1c(C(c2ccc(Br)cc2)c2c(O)c3ccccc3oc2=O)c(=O)n(-c2ccccc2)n1C (centres unmarked),6.58
22,CCc1ccc(CCC(=O)Nc2ccc(C(C)=O)cc2)o1,14.5

row,Structure (SMILES),"hERG current change (%, negative = inhibition) at 1uM [%]"
1,Cc1ccc(F)cc1S(=O)(=O)Nc1cccc(C(=O)N2CCCC(C(N)=O)C2)c1 (centres unmarked),8.23
2,CCN(Cc1ccccc1)C(=O)Cc1ccc(OC)c(S(=O)(=O)N2CCOCC2)c1,-2.57
3,CCc1noc(C)c1C(=O)Nc1sc(C(=O)N(C)C)c(C)c1C(=O)OC,-6.16
4,CCCC(=O)OCC(=O)Nc1ccc([N+](=O)[O-])cc1C#N,13.7
5,COc1cc(NC(=O)CCCn2c(=S)[nH]c3ccccc3c2=O)cc(OC)c1OC,4.64
6,O=C(Nc1ccc(N2CCN(C(=O)c3ccco3)CC2)cc1)c1cccnc1Cl,5.13
7,Cc1cc(F)ccc1S(=O)(=O)N1CCCOC1CNC(=O)C(=O)NC1CC1 (centres unmarked),-7.83
8,Cc1ccc(S(=O)(=O)/N=C2/C=C(Sc3ncn[nH]3)C(=O)c3ccccc32)cc1,4.41
9,Cc1ccc(NC(=O)CN(C)C(=O)CSc2nc(C)cc(C)n2)cc1,9.28
10,Clc1ccc(C2Nc3cccc4cccc(c34)N2)cc1,1.35
11,CCN(CC)c1ccc(/C=N/OC(C)C(=O)Nc2ccc(C)cc2)cc1 (centres unmarked),2.48
12,O=C1N/C(=C/c2cccn2-c2ccccc2)C(=O)N1Cc1ccc(F)cc1,13.5
13,CCCC(=O)NC(C)c1nc2ccccc2[nH]1 (centres unmarked),10.8
14,O=[N+]([O-])c1ccc(OCCOc2ccccc2/C=N/n2cnnc2)cc1,4.9
15,CCOC(=O)C(=O)N1CCC(C(=O)OC)CC1,17.5
16,Cc1noc(C)c1C(=O)N1CCOCC1,17.4
17,CCCS(=O)(=O)c1c(S(=O)(=O)CCC)c2ccc(C(C)=O)cn2c1C(=O)OC,2.09
18,CCOC(=O)C1CCN(C(=O)Cn2cc(C#N)c3ccccc32)CC1,-0.737
19,COc1ccc(CNC(=O)C2CCC(CNS(=O)(=O)c3ccccc3)CC2)cc1 (centres unmarked),8.61
20,CNC(=O)c1ccsc1NC(=O)C1CCN(S(=O)(=O)c2ccc(Cl)s2)CC1,-7.31
